Sequences with one replicate were seen in a single cluster, so their values are uncertain.
System: ATP
Experiment: switch fluorescence ratio, 500 uM ATP over buffer (Cy3 cluster intensity, sum of 5 cycles each) (fold (ratio)); higher = stronger signal-on switching upon ATP binding; sequences stand for … in TCGTCGGCAGCGTCAGATGTGTATAAGAGACAGTTTTTTTTTTTTTTTTTTTTTTTTT…TC
Details: aptamer strand: ATP DNA aptamer (quencher-CACCTGGGGGAGTATTGCGGAGGAAGG + anchor), 100 nM annealed; ATP concentration: 500 uM; one replicate
Summary of the method: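 Per cluster, summed Cy3 intensity from the target cycles was divided by that from the buffer cycles to give the fluorescence ratio, then averaged per switch-domain sequence. Clusters outside 100-1000 RFU were excluded. The Cy3-labelled switching-strand clusters, on a modified Illumina MiSeq flow-cell, were annealed to 100 nM quencher-labelled ATP aptamer and imaged in selection buffer, then after 15 min with 500 uM ATP at 22 °C, for five cycles with NaOH stripping and re-annealing between them.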
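Further: ATP exposure 15 min at 22 °C before imaging.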

GACCGGACCG
switch fluorescence ratio: 1

AGAGGACGCA
switch fluorescence ratio: 1.28

ATATTTGATG
switch fluorescence ratio: 1.01

GAAGAGGACT
switch fluorescence ratio: 1.01

TGTAGCCCGA
switch fluorescence ratio: 1.02

CAGGTCAGCC
switch fluorescence ratio: 1.17

GTGGATGGGT
switch fluorescence ratio: 0.952

AGGGAATT
switch fluorescence ratio: 0.978

CTATTCACGG
switch fluorescence ratio: 1

TGGCGGTCCA
switch fluorescence ratio: 0.99

AAGGCCAAGA
switch fluorescence ratio: 1

GGTTTGCCTT
switch fluorescence ratio: 0.96

TACTAAATTT
switch fluorescence ratio: 0.987

GGACTTGAAC
switch fluorescence ratio: 1.1

CACCATGGAA
switch fluorescence ratio: 0.995

GGAACTGCCC
switch fluorescence ratio: 1.15

CCTGCGTGGC
switch fluorescence ratio: 2.94

CTCAGAAGGA
switch fluorescence ratio: 1

TAATCTTTCG
switch fluorescence ratio: 1.53

ATGGCGCTAG
switch fluorescence ratio: 0.984

AGCTACATTG
switch fluorescence ratio: 0.976

AGCGGTCGAG
switch fluorescence ratio: 1

GCTGCTCGAC
switch fluorescence ratio: 1.07

CTCAGGGCGG
switch fluorescence ratio: 0.988

GGCCTTGCAA
switch fluorescence ratio: 1.56

AATAAGTGCC
switch fluorescence ratio: 0.922

TTGGTTCCAC
switch fluorescence ratio: 1.06

ACGTGTATAC
switch fluorescence ratio: 1.81

CTAACTATAA
switch fluorescence ratio: 1.02

CTACTCCGAG
switch fluorescence ratio: 1.33

AATCTTCCGT
switch fluorescence ratio: 1.55

AAATACGTCG
switch fluorescence ratio: 0.939

TTTCAGACTG
switch fluorescence ratio: 1.07

GAGACGATGA
switch fluorescence ratio: 1.01

GGCGATAACG
switch fluorescence ratio: 1.03

CGAGCGTAGA
switch fluorescence ratio: 1.04

GGGAGCATGT
switch fluorescence ratio: 0.988

ACCTTACTAC
switch fluorescence ratio: 2.21

ACAGGGATTC
switch fluorescence ratio: 0.986

TACTGTTCAC
switch fluorescence ratio: 1.05

TATGTAAGTG
switch fluorescence ratio: 1.01

GGATAAGGCT
switch fluorescence ratio: 1.02

GTGTAAAAAG
switch fluorescence ratio: 1.01

TCGTCGGGGG
switch fluorescence ratio: 1

TTGGTTGCCG
switch fluorescence ratio: 1.04

TTGCTGGAGG
switch fluorescence ratio: 0.979

ATTGCTTT
switch fluorescence ratio: 1.01

CTTACCTGAA
switch fluorescence ratio: 1.09

ATAGCGGCTC
switch fluorescence ratio: 1.24

CACCTCTTGA
switch fluorescence ratio: 0.988

GGGCTACGGA
switch fluorescence ratio: 0.944

CGAACCTCCC
switch fluorescence ratio: 1.98

TTACGTAGGA
switch fluorescence ratio: 1.01

CGCCCGCTCA
switch fluorescence ratio: 1.39

GTGGATTAGT
switch fluorescence ratio: 0.952

TTGAGAGTGG
switch fluorescence ratio: 1.01

ATTAGCCGGC
switch fluorescence ratio: 1.01

CCGATCGATG
switch fluorescence ratio: 1.6

AGGTATGGGT
switch fluorescence ratio: 0.993

GATGCGATTG
switch fluorescence ratio: 1.07

AATTAGGGTC
switch fluorescence ratio: 1.01

TCGACTCT
switch fluorescence ratio: 1.03

AGATTAGGAG
switch fluorescence ratio: 1.02

GAATGAATGA
switch fluorescence ratio: 0.979

CATAGTCTTA
switch fluorescence ratio: 0.976

ATTATCCGA
switch fluorescence ratio: 0.997

GCAGTTTGAC
switch fluorescence ratio: 1.05

AGTCTGATTA
switch fluorescence ratio: 0.942

CATCTTATTC
switch fluorescence ratio: 1.02

CATCCGGG
switch fluorescence ratio: 1.4

ACTCAGAGGA
switch fluorescence ratio: 1.06

CACATAGTTA
switch fluorescence ratio: 1.06

GCGTCGTTGA
switch fluorescence ratio: 1.01

GTGCATGGCG
switch fluorescence ratio: 1.09

AATGTAAGGC
switch fluorescence ratio: 0.96

AAAAAGAGAC
switch fluorescence ratio: 1.03

TGAGATCGTC
switch fluorescence ratio: 1.01

AGAGAACCGG
switch fluorescence ratio: 1.01

ATTAGCTATT
switch fluorescence ratio: 1.02

GAGAAAATA
switch fluorescence ratio: 0.977

CCTTAGCCTT
switch fluorescence ratio: 1.32

TTCTAATTCC
switch fluorescence ratio: 1.1

GAATAAGTGT
switch fluorescence ratio: 1

TCGACTAATT
switch fluorescence ratio: 0.995

TCATGGGTT
switch fluorescence ratio: 1.03

TTAGCTGTG
switch fluorescence ratio: 0.965

GAAGTCGCCC
switch fluorescence ratio: 1.02

AAGAGGTCCA
switch fluorescence ratio: 0.972

AATATGCGCT
switch fluorescence ratio: 0.944

GCCGCTTTGG
switch fluorescence ratio: 0.981

ATCTTGCACG
switch fluorescence ratio: 1.03

GGGTGCGAAT
switch fluorescence ratio: 1.17

GGACGGTCAA
switch fluorescence ratio: 0.985

CAGGAAGGCA
switch fluorescence ratio: 1.01

TTCCTAGTAA
switch fluorescence ratio: 1.19

ACGAACTATT
switch fluorescence ratio: 1.29

TATGATTTTT
switch fluorescence ratio: 1.04

GTCATCGGTC
switch fluorescence ratio: 0.976

CTGCGTGGGC
switch fluorescence ratio: 1.04

CATATTCGGG
switch fluorescence ratio: 1.01

AAGAACTTAT
switch fluorescence ratio: 1.01

ACTGCCCGGA
switch fluorescence ratio: 1.06

GAGTATTTGG
switch fluorescence ratio: 0.999

TCTGAATTGA
switch fluorescence ratio: 0.987

CATGGCGGTA
switch fluorescence ratio: 1.06

CTCTCTAAAG
switch fluorescence ratio: 0.982

TATGGGATCC
switch fluorescence ratio: 1

ATCTTGGGAT
switch fluorescence ratio: 1

CTGGCTCGCA
switch fluorescence ratio: 1.17

CTACAAGTA
switch fluorescence ratio: 1.04

GCTCCTTTCC
switch fluorescence ratio: 1.7

CCGCAAGGGA
switch fluorescence ratio: 2.01

TCTTGCGCAT
switch fluorescence ratio: 1.86

ACAGCCAGGA
switch fluorescence ratio: 1.01

AAACGCCCCT
switch fluorescence ratio: 1.12

TGCTAGAGAC
switch fluorescence ratio: 1.06

GATTCCATCT
switch fluorescence ratio: 1.04

AGTTCACTAA
switch fluorescence ratio: 0.992

CGGACGGAGC
switch fluorescence ratio: 1.76

TTCTCGCATC
switch fluorescence ratio: 3.84

GTTCCAAGTT
switch fluorescence ratio: 0.977

GTGGTGGTGT
switch fluorescence ratio: 1.02

TTCCACAGAC
switch fluorescence ratio: 1.77

TCGAAGTTTG
switch fluorescence ratio: 1.05

ATATCTAAAA
switch fluorescence ratio: 0.995

CGGGAACACG
switch fluorescence ratio: 0.999

CACACACAAG
switch fluorescence ratio: 1.2

TATCCTTTT
switch fluorescence ratio: 1

ACGATGTTTG
switch fluorescence ratio: 0.978

TTGCTTTATG
switch fluorescence ratio: 1.03

TGAGGAGTGC
switch fluorescence ratio: 1.09

CTGGGTATCA
switch fluorescence ratio: 0.964

TTTAGCATAT
switch fluorescence ratio: 1.1

GACTGTGCCA
switch fluorescence ratio: 1.02

GATTCTTAGA
switch fluorescence ratio: 0.971

CAGGGCGAAT
switch fluorescence ratio: 1.02

GGGAAGCCTC
switch fluorescence ratio: 1.04

TCACGAGGTG
switch fluorescence ratio: 1.17

TTTCTTCTAT
switch fluorescence ratio: 1.01

CATGACCCAG
switch fluorescence ratio: 0.979

ATTAGGGATG
switch fluorescence ratio: 0.95

GCATGATGCC
switch fluorescence ratio: 0.949

TCGCCAACAT
switch fluorescence ratio: 0.983

CAGTTTGCGG
switch fluorescence ratio: 1.08

CATACTGCAC
switch fluorescence ratio: 1.71

ATTGAAACTT
switch fluorescence ratio: 1.02

CCGTGGAGG
switch fluorescence ratio: 1.02

AAAGGGTGAA
switch fluorescence ratio: 0.97

CGGGTATCG
switch fluorescence ratio: 0.976

GGGTACAGTG
switch fluorescence ratio: 0.977

TGCGATCTGG
switch fluorescence ratio: 0.978

ATTCTCGTTC
switch fluorescence ratio: 1.02

GGGAGTAGG
switch fluorescence ratio: 1

ACAGAAGAG
switch fluorescence ratio: 1.02

GCAGAGCGAT
switch fluorescence ratio: 1.09

CCGTTGTGTA
switch fluorescence ratio: 1.03

CAATAATAGG
switch fluorescence ratio: 1.02

ATTAGCTAAA
switch fluorescence ratio: 1.02

TCTTCACTGA
switch fluorescence ratio: 1.03

GAACTAGTCC
switch fluorescence ratio: 1.03

GGGTGTCCAT
switch fluorescence ratio: 0.965

GCACGTAAGG
switch fluorescence ratio: 1.17

GACTAGGTGG
switch fluorescence ratio: 0.957

CTTATATACG
switch fluorescence ratio: 0.99

TCATCTCTCA
switch fluorescence ratio: 0.982

TTGTCATAAT
switch fluorescence ratio: 0.982

TAAGATCACG
switch fluorescence ratio: 0.988

AATCCAACAA
switch fluorescence ratio: 1.02

CCTCGCTGTT
switch fluorescence ratio: 2.04

GCCTATCACA
switch fluorescence ratio: 0.997

CACATGTGTT
switch fluorescence ratio: 1.01

GGTACCGCGA
switch fluorescence ratio: 2.41

TTGAGTAGTA
switch fluorescence ratio: 0.973

CGCAAGAGGC
switch fluorescence ratio: 2.18

GGGCGAACCG
switch fluorescence ratio: 1

TCGGAGAGAT
switch fluorescence ratio: 1.09

CGGTATCACG
switch fluorescence ratio: 0.967

TTGGGCCCAG
switch fluorescence ratio: 0.99

CCATGCATTC
switch fluorescence ratio: 2.94

AGTTATACCC
switch fluorescence ratio: 1.03

ATGTGACACT
switch fluorescence ratio: 1

GTAAACGGAG
switch fluorescence ratio: 1.04

GGGTGGGCTG
switch fluorescence ratio: 0.933

GTGGAGCGGA
switch fluorescence ratio: 0.972

GGGAAGAGAA
switch fluorescence ratio: 0.975

CAAACCGGAA
switch fluorescence ratio: 1.39

CAACGCACGG
switch fluorescence ratio: 1.82

AAACATCCGG
switch fluorescence ratio: 0.999

CCAAGTGGGG
switch fluorescence ratio: 1.02

TCTGTTGAGG
switch fluorescence ratio: 1.01

GCGTGGTCAT
switch fluorescence ratio: 0.96

GCATAGGACC
switch fluorescence ratio: 1.28

TGCGGCGCGG
switch fluorescence ratio: 1.02

GACTATCCCT
switch fluorescence ratio: 1.03

TGCTGATTT
switch fluorescence ratio: 0.977

ACGGGTAAAA
switch fluorescence ratio: 1.01

CGCCGGTA
switch fluorescence ratio: 1.01

TTTGGTCAAC
switch fluorescence ratio: 0.958

TACAGGTCCG
switch fluorescence ratio: 1

CAAGACGGGT
switch fluorescence ratio: 1.04

TAAACTAGTT
switch fluorescence ratio: 0.99

Source: the supplement of paper PMC10126150
